# Screen size: about 340,000 compounds; about 530 (0.16%) were called active. This list was built around the results that the source calls inconclusive (neither active nor inactive); the mix of calls is not that of the screen. No stated cut-off is given here; in the data, active means activity change below about -80%; inconclusive means between about -30% and that limit; inactive means weaker than that.
# Test: Small Molecules that selectively kill Giardia lamblia: qHTS;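 further: parasites exposed to compound for two days anaerobically before the ATP read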
# Conditions: Giardia lamblia trophozoite viability; at 7.66 µM; hits give low values
# Procedure, shortened: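 Compounds were tested on trophozoites seeded at 100 cells/well and held 48 hrs at 37 deg C anaerobically. An ATP-based luminescent kit measured the remaining live cells.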
# On the % scale 0 is the no-effect control and ±100 the full control effect.
row,SMILES,activity change
1,CC(=NN1CC(=O)NC1=O)c1ccc([N+](=O)[O-])o1,inconclusive: -77.1% [inhibitor]
2,CCS(=O)(=O)Nc1cccc(C2=NN(S(=O)(=O)c3ccc(C)cc3)C(c3ccco3)C2)c1 (configuration not stated),inconclusive: -53.9% [inhibitor]
3,COc1ccc(-c2cc3nc[nH]c(=O)c3s2)cc1,inconclusive: -57.3% [inhibitor]
4,COc1ccc(N2CCN(S(=O)(=O)CCNC(=O)COc3cccc(OC)c3)CC2)cc1,inconclusive: -34.5% [inhibitor]
5,O=C1N[C@@H](Cc2c[nH]c3ccccc23)C(=O)N[C@H]1Cc1ccccc1,inactive: -24.2%
6,CSCCC(NS(=O)(=O)c1ccc2c(c1)OCCO2)C(=O)N(C)Cc1ccccc1F (configuration not stated),inconclusive: -48.8% [inhibitor]
7,CCn1c(CC(=O)Nc2ccccc2)n[nH]c1=S,inactive: -6.63%
8,CC(C)(C)c1ccc(OCCC(=O)NCC(c2cccs2)N2CCOCC2)cc1 (configuration not stated),inactive: -8.87%
9,CC(=O)Nc1cccc(NC(=O)COc2ccccc2C)c1,inconclusive: -32% [inhibitor]
10,O=C(Nc1ccc(N2CCCC2)c(Cl)c1)c1ccc([N+](=O)[O-])o1,inconclusive: -47.9% [inhibitor]
11,CC(=O)c1ccc(NC(=O)CCNC(=O)c2ccccc2Cl)cc1,inconclusive: -34.2% [inhibitor]
12,O=C(NCc1ccccc1Cl)c1ccc2c(c1)SC1=NS(=O)(=O)CCN12,inconclusive: -33% [inhibitor]
13,COc1ccc2c(c1OC)C(=O)N1c3ccccc3N=C(c3ccc([N+](=O)[O-])cc3)CC21 (configuration not stated),inconclusive: -37.2% [inhibitor]
14,O=C(Nc1csc([N+](=O)[O-])c1)Nc1c(Cl)cccc1Cl,inconclusive: -63.4% [inhibitor]
15,COC(=O)c1ccc(Nc2ccc3nonc3c2[N+](=O)[O-])cc1,active: -92.6%
16,COc1ccc(-c2cc(N)n(S(=O)(=O)c3c(F)c(F)c(F)c(F)c3F)n2)cc1OC,inactive: 11.4%
17,Cc1oc(-c2cccs2)nc1CS(=O)CC(=O)NCCCOC(C)C (configuration not stated),inactive: 5.4%
18,Cc1ccc2nc(-c3cccc(Br)c3)cc(C(=O)NC3=NCCS3)c2c1,inactive: -2.15%
19,c1ccc(C2[C@H]3CN(CC4CCCCC4)[C@H](c4ccccc4)C34CC2(c2cccnc2)C4)cc1 (some centres not stated),inactive: 9.84%
20,COc1cc(NC(=O)c2ccc([N+](=O)[O-])o2)ccc1NC(=O)c1ccco1,active: -95.7%
21,Cc1ccc(C(=O)Nc2ccc(S(=O)(=O)N3CCCC3)cc2)s1,inconclusive: -32.1% [inhibitor]
22,COc1ccc(NC(=O)COc2ccc(C(=O)NC3CCCc4ccccc43)cc2OC)cc1 (configuration not stated),inconclusive: -34.5% [inhibitor]
23,Cc1c(Nc2nc3ccccc3n3cnnc23)cccc1[N+](=O)[O-],inconclusive: -57.8% [inhibitor]
24,CC(=O)Oc1ccc2c(=O)c(Oc3ccccc3[N+](=O)[O-])coc2c1,inconclusive: -46% [inhibitor]
25,Cc1ccc2nc(-c3ccc(O)c(O)c3)cn2c1,inconclusive: -34% [inhibitor]
26,[O-][N+]12CCN(CC1)c1ccccc12,inconclusive: -35.2% [inhibitor]

row,SMILES,activity change
1,COc1ccccc1NC(=O)CNC(=O)c1ccc(Br)o1,inconclusive: -32.4% [inhibitor]
2,CCOC(=O)N1C(C)CN(/[N+]([O-])=N/Oc2ccc([N+](=O)[O-])cc2[N+](=O)[O-])CC1C (configuration not stated),inconclusive: -48.1% [inhibitor]
3,COc1ccc2nc(NC(=O)c3ccccc3O)sc2c1,inconclusive: -55.1% [inhibitor]
4,COc1ccc(-c2oc3ccc(-c4cc(OC)c(OC)c(OC)c4)cc3c2C#Cc2ccccn2)cc1,inactive: 6.73%
5,O=C(NCCc1ccccc1Cl)c1ccc2nc3ccccc3c(=O)n2c1,inactive: 16.6%
6,CC(=O)c1c(COC(=O)c2ccccc2Cl)nc2ccccc2[n+]1[O-],inconclusive: -47.4% [inhibitor]
7,O=C(Nc1cccnc1)c1cc(-c2ccc3c(c2)OCO3)on1,inconclusive: -35% [inhibitor]
8,CCOC(=O)[C@H]1[C@H]2COc3ccc(C)cc3[C@@H]2N2C(=O)c3cc(OC)c(OC)cc3NC(=O)[C@@]12C,inconclusive: -31.8% [inhibitor]
9,CC1Nc2ncnc(N3CCN(c4ccccc4)CC3)c2N(Cc2ccc(Cl)cc2)C1=O (configuration not stated),inactive: 43.5%
10,Cc1ccnc(NC(=O)c2ccc(Cl)c([N+](=O)[O-])c2)c1,inconclusive: -32.8% [inhibitor]
11,O=C(COc1cccnc1[N+](=O)[O-])NCc1ccc(F)cc1,inconclusive: -62.9% [inhibitor]
12,O=C(OCc1nc2ccccc2[n+]([O-])c1C(=O)c1ccccc1)c1ccco1,inconclusive: -54.7% [inhibitor]
13,COCCCNc1nc2ccccc2nc1NS(=O)(=O)c1ccc(C)cc1C,inconclusive: -35.7% [inhibitor]
14,Cc1ncc([N+](=O)[O-])n1CC(O)CCl (configuration not stated),inconclusive: -75.4% [inhibitor]
15,COc1ccc(-c2nc(-c3ccccn3)no2)cc1,active: -81.2%
16,Cc1nnc(N/N=C\c2ccc(-c3ccccc3[N+](=O)[O-])o2)n1N,inactive: 2.26%
17,O=c1[nH]cc(COCC(F)CCl)c(=O)[nH]1 (configuration not stated),inactive: -3.59%
18,O=c1c2c(nc3nc(NCc4ccc(Cl)cc4)[nH]n13)CCC2,inconclusive: -31.1% [inhibitor]
19,CSc1nc(-c2ccccc2)nc(C(C)C)n1,inactive: -28.7%
20,CCOC(=O)N1CCN(Cc2nc3c(c(=O)[nH]c(=O)n3C)n2Cc2cc(C)ccc2C)CC1,inconclusive: -31.5% [inhibitor]
21,CCOCCOC(=O)c1[nH]c2c(c1C)C(=O)CC(c1ccccc1)C2 (configuration not stated),inactive: -5.67%
22,COc1cccc(OCC(O)CN2CCN(c3ccccn3)CC2)c1 (configuration not stated),inconclusive: -31% [inhibitor]
23,CCOC(=O)C[C@H]1c2ccccc2S(=O)(=O)N1Cc1cccc(C(F)(F)F)c1,inconclusive: -36% [inhibitor]
24,O=C(NC(=S)NC1CCC(O)CC1)c1ccco1 (configuration not stated),inconclusive: -33.2% [inhibitor]
25,CCOC(=O)CNC(=O)CSc1nnc(Cn2c(=O)sc3ccccc32)n1C,inconclusive: -33.5% [inhibitor]
26,Cc1cc(C)c2c(c1)OC(=O)CC2c1ccc2c(c1)OCO2 (configuration not stated),inconclusive: -30.6% [inhibitor]

row,SMILES,activity change
1,CCCCCCC(=O)N(O)C1CC(=O)N(c2ccc(Br)cc2)C1=O (configuration not stated),inactive: -4.82%
2,Cc1cccc(N2CCN(C(=O)CCC(=O)N3Cc4ccccc4Oc4ncccc43)CC2)c1C,inconclusive: -34.6% [inhibitor]
3,Cc1ccc(S(=O)(=O)N(CC#N)CC#N)cc1,inconclusive: -32.3% [inhibitor]
4,COc1ccc(/C=C(\C#N)c2cc(OC)c(OC)cc2[N+](=O)[O-])cc1,inconclusive: -43.3% [inhibitor]
5,COCCNC(=S)N(c1ccccc1)C(C)C,inactive: 12.5%
6,Cc1ccc(NC(=O)C(C)N2C(=O)c3ccccc3C2=O)cc1S(=O)(=O)N1CCOCC1 (configuration not stated),inconclusive: -32.4% [inhibitor]
7,O=C(CSc1nc2ccccc2o1)Nc1nncs1,inconclusive: -30.7% [inhibitor]
8,COc1cc([N+](=O)[O-])ccc1NC(=O)Nc1cccnc1,inconclusive: -38.2% [inhibitor]
9,COc1ccc(S(=O)(=O)N2CCCC(C(=O)NCC3CCCO3)C2)cc1Cl (configuration not stated),inactive: -1.17%
10,O=C(c1ccc(Cl)c(Cl)c1)N1CCC(=O)N(C(COCc2ccccc2)Cc2ccccc2)CC1 (configuration not stated),inactive: -16.1%
11,CN(C(=O)COC(=O)c1cc(S(=O)(=O)N2CCOCC2)ccc1F)C1CCS(=O)(=O)C1 (configuration not stated),inactive: 13.4%
12,CNC(=O)[C@H]1O[C@@H](n2cnc3c(NCc4cccc(I)c4)ncnc32)[C@H](O)[C@@H]1O,inactive: -16.6%
13,O=C(c1ccco1)N1CCN(CC(O)COc2ccc(Br)cc2)CC1 (configuration not stated),inactive: -13.4%
14,Cc1cc(C)c(CN2CCC(n3nccc3NC(=O)CCOc3ccccc3)CC2)cc1C,inactive: -10%
15,O=C(NCc1ccco1)Nc1ccc(Br)cc1,inactive: -19.4%
16,COc1ccc(C2SCC(=O)N2c2nc3ccccc3s2)cc1 (configuration not stated),inconclusive: -44.4% [inhibitor]
17,NC(=O)CC(NC(=O)Cc1cccc2ccccc12)c1ccc(N2CCN(c3ccc(F)cc3)CC2)c([N+](=O)[O-])c1 (configuration not stated),inconclusive: -34% [inhibitor]
18,CCc1nn(CC(=O)NCCCN2CCN(CC)CC2)c(=O)c2cc3occc3n12,inactive: -4.64%
19,CN(C)S(=O)(=O)c1ccc(N2CCCC2)c(C(=O)Nc2ccc(F)cc2F)c1,inactive: -3.66%
20,CC1=NN(c2nc3ccccc3[nH]2)C(=O)/C1=C/N(C)C,inconclusive: -46.6% [inhibitor]
21,COCCOC(=O)CSc1ncccc1-c1nc2cc(C)c(C)cc2[nH]1,inconclusive: -35.2% [inhibitor]
22,CCc1nc2ccccc2c(C(=O)Oc2cccc3cccnc23)c1C,inconclusive: -31.1% [inhibitor]
23,CCCNC(=O)c1cn(CC)c2cc(N3CCN(C)CC3)c(F)cc2c1=O,inconclusive: -30.5% [inhibitor]
24,Cc1ccc(NC(=O)c2cc3ccccc3oc2=O)cc1S(=O)(=O)N(C)C,inconclusive: -67.3% [inhibitor]
25,CNC(=S)NNC(=O)c1ccc(C(C)(C)C)cc1,inconclusive: -30.7% [inhibitor]

# From PubChem BioAssay AID540267 (National Center for Advancing Translational Sciences (NCATS), 2011)
